According to PubChem BioAssay AID1508623 (National Center for Advancing Translational Sciences (NCATS), 2021):
About 450 (0.94%) of roughly 48,000 compounds were called active. Another 19% or so got no clear call; they are omitted. Calls come from the whole dose curve; as a rule, active = well fitted inhibition curve with a large enough effect; inconclusive = small, poorly fitted or top-dose-only effect; inactive = no such curve, though single readings can be large or run the other way. The list shows a part of the results.

Assay: Primary qHTS for Identification of Small Molecule Inhibitors of Huntingtin Promoter Activity; note: nearly all actives have a fitted effect of over 50% in size
Settings: HEK293 HTT promoter firefly luciferase reporter (activity 0% = vehicle and -100% = no light), 24 h; series mostly up to 57.5 µM; activity change, negative = inhibition: at the top concentration
Procedure, shortened: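 Firefly luciferase readout (Dual-Glo, 10 min RT) after 24 h, 37 °C compound exposure (final up to 57.5 uM) of HEK293 reporter cells cultured 24 h beforehand; PTC124 at 50 uM final as control inhibitor; activity scaled vehicle 0%, zero RLU -100%.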

Activity change, negative = inhibition, inactive:
CCc1ccc(-n2nc(C)c3c(C)cc(=O)n(Cc4nc(-c5ccccc5)oc4C)c32)cc1 2.15%, Cn1cc(-c2ccc3nnc(Sc4ccc5ncccc5c4)n3n2)cn1 -1.58%, CCOc1ccc(CNC(=O)C2Cc3ccccc3N2C(=O)CC)cc1OC (centres undefined) 0%, Clc1ccc(Nc2nnc(Cc3ccncc3)c3ccccc23)cc1 -5.91%, CCCc1nn2c(=O)cc(COC(=O)c3ccccc3NC(=O)COc3ccccc3F)nc2s1 0%, Cc1cccc(CNC(=O)CCn2c(=O)c3cccn3c3ccc(F)cc32)c1 3.19%, Cc1nc2c(C(=O)NCCCN(CC(C)C)CC(C)C)cnn2c(C)c1Cc1c(F)cccc1Cl -17.6%, CCCOC(=O)c1c(NC(=O)c2nc3ncccn3n2)sc(C(N)=O)c1C -3.46%, COc1cccc(CNCCNC(=O)c2nonc2N)c1 -5.56%, Cc1cccc(NS(=O)(=O)c2c(C)nc3sccn3c2=O)c1C -20.4%, O=C(NCc1ccccc1Cl)c1cc2c(s1)-c1ccc(Cl)cc1SC2 -0.793%, CCSc1nc2c([nH]c3ccccc32)c(=O)n1CC -14.6%, CCOc1ccccc1NC(=O)N1CC(CC)Oc2ccccc21 (centres undefined) -15.6%, Cc1ccc(C(=O)CSc2nc(-c3ccccc3)nc3c2CCCC3)cc1 0.521%, CCOC(=O)CSc1nc(-c2ccc(C)cc2C)cc(-c2ccccc2)c1C#N -6.84%, COc1cccc(-n2c(=O)c3c(C)c(C)sc3n(CC(=O)NCc3ccc(C)cc3)c2=O)c1 -1.15%, CC(C)(C)C(=O)Nc1cccc(-c2cn3cccnc3n2)c1 31.3%, Cc1cccc(CSc2ncc(Cl)c(C(=O)Nc3sc4c(c3C(N)=O)CCCC4)n2)c1 -5.96%, O=C(Cn1c(=O)nc(-c2ccccc2)c2ccccc21)Nc1cccc(C(F)(F)F)c1 -12.3%, CCOC(=O)c1ccc2c(c1)N(CC(=O)N(C)c1ccccc1)C(=O)c1ccccc1S2 -38%, COc1ccc(-c2cn(-c3ccc(C)cc3)c(S(=O)(=O)CC(=O)Nc3ccc(F)cc3)n2)cc1 -4.19%, COc1ccccc1NC(=O)c1cc(=O)c2ccc(C)c(C)c2o1 22.1% [at 11.5 µM], Cc1ccc(Cc2c(C)nc3nc(SCC(=O)NC4CCC(C)CC4)nn3c2C)cc1 (centres undefined) -5.65%, O=C(CC1N=C2c3ccccc3N=C(SCc3cccc(Cl)c3)N2C1=O)NCc1ccc2c(c1)OCO2 (centres undefined) -18.4%, CC1CCCCN1C(=O)CSc1n[nH]c(-c2ccccc2Cl)n1 (centres undefined) 20%, CCN(C(=O)c1nn(-c2ccc(OC)c(Cl)c2)c(=O)c2c1c1ccccc1n2C)c1cccc(C(F)(F)F)c1 -19.1%, O=C(CN1C(=O)COc2ccc(Cl)cc21)Nc1ccc(F)cc1 -17.7%, COc1ccc(-c2nc3ccc(NS(=O)(=O)c4ccc(C)cc4)cc3o2)cc1 -15.6%, O=c1[nH]cnc2c1ncn2[C@H]1CC[C@@H](CO)O1 7.55%, O=C(OCc1cc(=O)n2nc(-c3cccs3)sc2n1)c1ccc(Cl)cc1 1.21%, Cc1ccc(Cn2c(C(=O)NCc3ccccc3Cl)cc3sccc32)cc1 -11.5%, Cc1ccc(NC(=O)Cn2ncn3c(cc4ccccc43)c2=O)cc1F -18.4%, COC(=O)c1c(SCC(=O)Nc2cc(OC)cc(OC)c2)[nH]c2ccc(C)cc2c1=O -0.333%, CCC1CCC(C(=O)NC(C(=O)Nc2cccc(OC)c2)C(C)C)CC1 (centres undefined) 8.46%, O=C(CCC(=O)N1CC2CCCN2c2ccccc21)NCc1ccc(Cl)cc1 (centres undefined) -14.6%, CCOc1ccc(CNCc2c(C(=O)O)c(C)n(Cc3cccc(OC)c3)c2C)cc1OC -4.38%, Cc1cccc(NC(=O)CSc2nnc3[nH]c(=O)cc(-c4ccccc4)n23)c1C 56.9%, Cc1nc2nc(CNC(=O)OC(C)(C)C)nn2c(C)c1CCC(=O)NCc1ccc(F)cc1 -2.46%, COc1ccc(C2Nc3ccccc3-c3cc(C)nn32)cc1OC (centres undefined) -9.4%, COC(=O)c1cc2sc(C)cc2n1Cc1cccc(OC)c1 -30%, CCOC(=O)c1c(-c2ccc(OC)cc2)oc2ccc(OCc3ccccc3C)cc12 -1.38%, CCOC(=O)c1c(C)[nH]c(C)c1S(=O)(=O)N1CCCC(C(=O)NCc2cccc(C)c2)C1 (centres undefined) -18.9%, Cc1cccn2c(=O)c(C(=O)NCc3ccc(F)cc3)c(O)nc12 -1.51%, CCN(CC)CCNC(=O)C1CCN(c2nn3cc(-c4ccc(F)cc4)nc3s2)CC1 -4.98%, O=c1cc(-c2ccccc2)nc(SCc2nc(-c3ccccc3Cl)no2)[nH]1 -1.92%, FC1(F)C(F)(F)C(F)(F)C2(F)C(F)(F)C(F)(F)C(F)(F)C(F)(F)C2(F)C1(F)F (centres undefined) 3%, CCOc1cc(C(=O)Nc2cc3c(cc2N2CCOCC2)n(C)c(=O)n3C)cc(OCC)c1OCC -1.13%, CNc1ncnc2c1cnn2-c1ccc(C)c(C)c1 62.5%, Cc1ccccc1CNC(=O)CCCn1c(=O)c2cccn2c2cccnc21 6.91%, Cc1ccc(N2CC(NC(=O)c3cccs3)CC2=O)cc1C (centres undefined) -25.9%, Cc1cccc(NC(=O)c2ccc(-n3cnc4cccnc43)cc2)c1C 11%, Fc1ccc([C@@H]2CCNC[C@H]2COc2ccc3c(c2)OCO3)cc1, Oc1ccccc1-c1nc(/C=C/c2ccccc2Cl)nn1-c1ccccc1 -20.2%, CCc1ccc(C(=O)c2cn(CC(=O)Nc3ccc4c(c3)OCO4)c3ccc(OC)cc3c2=O)cc1 -17.6%, Cn1c(C(=O)Nc2cccc(C(F)(F)F)c2)cc2c(=O)n3ccccc3nc21 -4.15%, CCOc1ccc(NC(=O)C2CCC(CNS(=O)(=O)c3ccc(Br)s3)CC2)cc1 (centres undefined) 0%, COc1ccc(OC)c(CNC(=O)C(C)n2c(C)c3cnn(-c4ccccc4)c(=O)c3c2C)c1 (centres undefined) -22.2%, CC1=C(c2ccc(C)c(C)c2)S(=O)(=O)N=C1N1CCC(C(=O)N2CCC(C)CC2)CC1 -13.5%, CCOc1cc(/C=C(\C#N)C(=O)NCC2CCCO2)ccc1O (centres undefined) 5.23%, CCOc1ccc(C(=O)c2oc3ccccc3c2NC(=O)Cc2coc3ccc(CC)cc23)cc1 4.47%, Cc1cccc(NC(=O)N2CCC3(CC2)Oc2ccccc2C(=O)N3Cc2ccccc2F)c1C -1.41%, O=C(Cc1ccc(F)cc1)Nc1nnc2n1CCS2 -5.29%, COc1cccc(C(=O)Nc2c(C(=O)N3CCN(c4ccc(F)cc4)CC3)oc3ccccc23)c1 -29.8%, COc1cc2ccccc2cc1C(=O)Nc1ccc2oc(-c3ccc(F)cc3Cl)nc2c1 22.8%, CN(C)CCCN1c2ccccc2CCc2ccccc21 -8.2%, C[C@H]1COc2c(N3CCN(C)CC3)c(F)cc3c(=O)c(C(=O)O)cn1c23 3.64%, CCc1ccc2occ(CC(=O)Nc3ccccc3C(F)(F)F)c2c1 -1.52%, CC(C)c1ccc(Nc2cc(C(=O)NC3CCCCC3)c3ccccc3n2)cc1 -0.231%, CCc1cccc(-n2c(=O)c3cccnc3n2CC(=O)Nc2ccc(F)c(C)c2)c1 -27.5%, O=C(NCCn1ccc2ccccc21)c1ccc(Cl)cc1 26.3%, COc1ccccc1NC(=O)CSc1nc(-c2ccc(C(C)(C)C)cc2)c(C#N)c(=O)[nH]1 1.38%, CCc1ccccc1OCC(=O)Nc1ccc(S(=O)(=O)Nc2nc(C)cc(C)n2)cc1 -13.1%, CCOC(=O)c1c(-c2ccc(C)cc2)csc1NC(=O)c1cc(=O)c2ccc(C)cc2o1 -17.1% [at 11.5 µM], COc1ccc(NC(=O)Cn2c(=O)n(Cc3nc(-c4ccccc4)no3)c(=O)c3ccccc32)cc1Cl -29.2%, CCCCCCCCCCC(CO)CCCCCCCC (centres undefined) 10.5%, NC(CO)C(=O)NNCc1ccc(O)c(O)c1O (centres undefined), COc1ccc(NC(=O)C2CCCN(S(=O)(=O)c3ccc(Br)s3)C2)cc1 (centres undefined) -13.5%, CC(=O)N1CCc2cc(S(=O)(=O)NC(C(=O)Nc3ccc(C)cc3C)C(C)C)ccc21 (centres undefined) -27.5%, CCOC(=O)c1c(NC(=O)c2cc(-c3cccc(OC)c3)on2)sc2c1CCCC2 3.72%, COc1cccc(CNC(=O)Cc2c(C(=O)O)c(C)cn2C)c1 -11.8%, COc1ccc(CC(=O)NCC(c2cccs2)S(=O)(=O)c2ccc(C)cc2)cc1 (centres undefined) -6.17%, CCc1ccc(NC(=O)Cn2c(=O)n(Cc3ccco3)c(=O)c3oc4ccccc4c32)cc1 -1.56%, O=C(NCc1cccs1)c1ccc(CSc2nc3cccnc3n2Cc2ccccc2F)cc1 -29.6%, Cc1cc(C)c(NC(=O)Cn2cnc3c(oc4ccccc43)c2=O)c(C)c1 54.8%, Cc1oc(-c2ccccc2Cl)nc1CSc1nc2ncccc2[nH]1 -16.4%, COc1ccccc1N1CCN(c2ncnc3onc(-c4cccc(Cl)c4)c23)CC1 -21%, CCOC(=O)c1c(C)n(-c2ccccc2)c2ccc(OC(=O)c3cccc(OC)c3OC)cc12 -19%, COc1ccc(S(=O)(=O)Nc2c(C)nc3nc(C)[nH]n3c2=O)cc1 -18.1%, CCc1cccc(N2C(=O)CSC23C(=O)Nc2ccccc23)c1 (centres undefined) -31.4%, CCCN(C(=O)c1cc2c(=O)[nH]c3ccc(C)cc3c2s1)c1ccc(CC)cc1 -10.4%, CC1CCN(C(=O)c2cc(-c3ccc(Br)cc3)on2)CC1 43.4%, CCOC(=O)C1CCCN(C(=O)c2nn(-c3ccc(C)cc3)c(=O)n(C)c2=O)C1 (centres undefined) 1.47%, CCc1nnc2c(N3CCN(c4cc(Cl)ccc4C)CC3)nc3ccccc3n12 -6.47%, COc1ccc(C2=NC(c3ccncc3)=Nc3ccc(OC)cc3N2)cc1 -8.16%, COc1ccc2c(c1)c(N1CCCC1=O)c(C(=O)Nc1ccccc1C(F)(F)F)n2C -21%, CCOc1ccc(NC(=O)CCNS(=O)(=O)c2cccc3nonc23)cc1 -10.7%, COc1ccc(-c2noc(COc3cc(C)ccc3C)n2)cc1OC -22.3%, O=C1[C@@H]2CSC(c3ccc(Cl)cc3)N2C(=O)N1c1ccccc1 (some centres undefined) -22%, CC(C)c1ccc(N2C(=O)CSC23C(=O)N(C)c2ccccc23)cc1 (centres undefined) -31.1%
